Data as given in the antibiotic and cytotoxicity screens of Wong et al. (2023).
The other results are listed elsewhere or left out.

Columns and labels:
[1] = tested on: HSkMC (human skeletal muscle cells); test: cytotoxicity call (relative viability < 0.9); details: 10 µM
[2] = tested on: HepG2; test: cytotoxicity call (relative viability < 0.9); details: 10 µM
[3] = tested on: S. aureus RN4220; test: growth inhibition call (relative growth <= 0.2); details: 50 µM

Structure (SMILES) | cytotoxicity call [1] | cytotoxicity call [2] | growth inhibition call [3]
C[C@@H]1CN([C@H](C)CO)C(=O)c2cc(NC(=O)CCCCCC(=O)Nc3ccccc3N)ccc2O[C@@H]1CN(C)Cc1ccc(Oc2ccccc2)cc1 | inactive | active | inactive
C[C@@H]1CCCCO[C@H](CN(C)Cc2ccc(C(F)(F)F)cc2)[C@@H](C)CN([C@H](C)CO)C(=O)c2cc(NC(=O)c3ccccc3)ccc2O1 | inactive | inactive | inactive
O=C(NCC[C@H]1CC[C@@H](NS(=O)(=O)c2cccc(F)c2)[C@@H](CO)O1)C1CC1 | inactive | inactive | inactive
C[C@H]1CN([C@@H](C)CO)C(=O)CCCn2cc(nn2)CO[C@@H]1CN(C)S(=O)(=O)c1ccc(Oc2ccccc2)cc1 | inactive | inactive | inactive
COc1ccc(CN(C)C[C@H]2Oc3c(NS(C)(=O)=O)cccc3C(=O)N([C@H](C)CO)C[C@H]2C)cc1 | inactive | inactive | inactive
COc1cc(CNC(=O)CCCCC=CC(C)C)ccc1O | inactive | inactive | inactive
O=C(NCCN1CCOCC1)C(=O)Nc1cc2c3c(c1)CCN3C(=O)CC2 | inactive | inactive | inactive
C[C@@H]1CN([C@H](C)CN(C)C)C(=O)c2cc(NC(=O)Cc3cn(C)c4ccccc34)ccc2O[C@H]1CN(C)S(=O)(=O)c1ccc(Cl)cc1 | active | active | inactive
CN(C)Cc1cn(CC[C@H]2CC[C@@H](NC(=O)Cc3cccnc3)[C@H](CO)O2)nn1 | inactive | inactive | inactive
COCCNC(=O)C[C@H]1CC[C@H]2[C@@H](COC[C@@H](O)CN2S(=O)(=O)c2ccccc2C)O1 | inactive | inactive | inactive
C[n+]1ccc(/C2=C3\C=CC(=N3)/C(c3cc[n+](C)cc3)=c3/cc/c4[n]3[Fe][n]3c2ccc3/C(c2cc[n+](C)cc2)=C2/C=CC(=N2)\C=4c2cc[n+](C)cc2)cc1 | inactive | active | inactive
COc1ccc(S(=O)(=O)Nc2ccc3c(c2)C(=O)N([C@@H](C)CO)C[C@@H](C)[C@H](CN(C)C(=O)Nc2ccc(C(F)(F)F)cc2)OCCCC[C@@H](C)O3)cc1 | inactive | inactive | inactive
Cc1ccc(S(=O)(=O)n2cc([C@H]3CC(=O)N(C(=O)OCc4ccccc4)[C@H]3C(=O)Nc3cccc4cccnc34)c3ccccc32)cc1 | inactive | inactive | inactive
O=C(Nc1ccc(F)cc1)N[C@@H]1C[C@@H]2O[C@H](CO)CC[C@@H]2O[C@@H]1CCc1ccc(-c2ccccc2)cc1 | inactive | inactive | inactive
Cc1ccccc1N1CCN(S(=O)(=O)C[C@@]23CC[C@@H](C[C@@H]2NC(=O)[C@@H](N)CCS(C)(=O)=O)C3(C)C)CC1 | inactive | inactive | inactive
COc1ccc(-c2cn(CCNC(=O)[C@H](Cc3ccccc3)NS(=O)(=O)c3ccc(C)cc3)nn2)cc1OC | inactive | inactive | inactive
C[C@@H]1CN([C@H](C)CO)C(=O)c2cccc(NC(=O)Nc3ccc4c(c3)OCO4)c2O[C@@H]1CN(C)C(=O)Nc1cccc2ccccc12 | inactive | inactive | inactive
C[C@H]1CN([C@@H](C)CO)S(=O)(=O)c2ccc(Br)cc2O[C@@H]1CN(C)C(=O)C1CCCCC1 | inactive | inactive | inactive
COc1ccccc1CNC(=O)C[C@@H]1CC[C@H]2[C@@H](COC[C@H](O)CN2S(=O)(=O)c2ccc(C)cc2)O1 | inactive | inactive | inactive
C[C@@H]1CN([C@@H](C)CO)C(=O)c2cc(NS(=O)(=O)c3ccc(Cl)cc3)ccc2O[C@@H]1CN(C)C(=O)Nc1ccc(C(F)(F)F)cc1 | inactive | inactive | inactive
C[C@@H]1CCCCO[C@H](CN(C)C(=O)Nc2ccc3c(c2)OCO3)[C@H](C)CN([C@H](C)CO)C(=O)c2cc(NS(=O)(=O)c3ccccc3)ccc2O1 | inactive | inactive | inactive
Cc1ccc(S(=O)(=O)Nc2ccc3c(c2)C(=O)N([C@H](C)CO)C[C@@H](C)[C@H](CN(C)C(=O)C2CCCCC2)OCCCC[C@H](C)O3)cc1 | inactive | inactive | inactive
Cc1noc(C)c1NC(=O)N(C)C[C@@H]1Oc2ccc(NC(=O)CCN3CCOCC3)cc2C(=O)N([C@@H](C)CO)C[C@@H]1C | inactive | inactive | inactive
Cc1ccc(S(=O)(=O)Nc2ccc3c(c2)C(=O)N([C@@H](C)CO)C[C@@H](C)[C@H](CN(C)S(=O)(=O)c2ccccc2)O3)cc1 | inactive | inactive | inactive
O=P([O-])(O)C(O)(Cc1cccnc1)P(=O)(O)O.[Na+] | inactive | inactive | inactive
COc1cccc(S(=O)(=O)N[C@H]2C=C[C@@H](CC(=O)NC3CCC3)O[C@@H]2CO)c1 | inactive | inactive | inactive
COc1ccc(CN(C)C[C@H]2OCCCC[C@H](C)Oc3ccc(NS(=O)(=O)c4ccc(C)cc4)cc3C(=O)N([C@@H](C)CO)C[C@@H]2C)cc1 | inactive | inactive | inactive
